Experimental data reported in the supplement of paper PMC4604168 (melanoma cell lines).
This is one part of the list. Single values are uncertain, as repeats are few or missing.
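Also: cells treated in 1,536-well plates, then fixed and DAPI-stained, with nuclei counted from automated high-throughput microscope images.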

The compounds below were run on LOXIMVI (assay: cell count relative to DMSO control; melanoma cells; higher = more viable cells). Conditions: library dose: standard library concentration; 72 h.
Compound O=C(O)c1ccc2c(c1)nc(Nc1cccc(Cl)c1)c1ccncc12 + C=CCn1c(=O)c2cnc(Nc3ccc(N4CCN(C)CC4)cc3)nc2n1-c1cccc(C(C)(C)O)n1 [MK1775] (first compound 2 µM, partner dose 0.1 µM) has a cell count of 38.4%. In the case of O=C(O)c1ccc2c(c1)nc(Nc1cccc(Cl)c1)c1ccncc12 + COc1cc(N2CCC(N3CCN(C)CC3)CC2)ccc1Nc1ncc(Cl)c(Nc2ccccc2S(=O)(=O)C(C)C)n1 [NVP-TAE684] (first compound 2 µM, partner dose 0.4 µM), the cell count was 49.9%. For O=C(O)c1ccc2c(c1)nc(Nc1cccc(Cl)c1)c1ccncc12 + Cc1cc([N+](=O)[O-])ccc1NS(=O)(=O)c1cc(Cl)ccc1Cl [FH535] (first compound 2 µM, partner dose 5 µM), the cell count was 63.5%. Compound O=C(Nc1cc(C(F)(F)F)cc(C(F)(F)F)c1)c1cc(Cl)ccc1O + Cn1c(Nc2ccc(C(F)(F)F)cc2)nc2cc(Oc3ccnc(-c4ncc(C(F)(F)F)[nH]4)c3)ccc21 [CHIR265] (first compound 0.08 µM, partner dose 0.4 µM) has a cell count of 98.2%. O=C(O)[C@@H]1[O][Sb](=[O])([O][Sb]2(=[O])[O][C@H]([C@H](O)CO)[C@H](O)[C@H](C(=O)O)[O]2)[O][C@H]([C@H](O)CO)[C@@H]1O (stereo not given in full) [stibogluconate] + COc1cc2ncnc(Nc3ccc(Oc4ccccc4)cc3)c2cc1OC [SrcI1] (first compound 10 µM, partner dose 10 µM) showed a cell count of 69.2%.
